SMILES strings stand for the structures. Where “and” joins values, the source holds several entries; their conditions need not be identical. Identical values can stand only once. In all, about 48,000 compounds went through this assay and about 1,200 (2.5%) were called active. Not shown: some 2% with an inconclusive outcome.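 How the source made its calls: active means activation of at least 60% and not above a set upper limit (about 1 call in 100 departs from these limits); inconclusive means activation of 40% to 60%, or above that upper limit; inactive means activation under 40%.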 The list shows a part of the results.

UniProt O75388, sequence (O75388 whole entry, looked up, the tested form may be a part): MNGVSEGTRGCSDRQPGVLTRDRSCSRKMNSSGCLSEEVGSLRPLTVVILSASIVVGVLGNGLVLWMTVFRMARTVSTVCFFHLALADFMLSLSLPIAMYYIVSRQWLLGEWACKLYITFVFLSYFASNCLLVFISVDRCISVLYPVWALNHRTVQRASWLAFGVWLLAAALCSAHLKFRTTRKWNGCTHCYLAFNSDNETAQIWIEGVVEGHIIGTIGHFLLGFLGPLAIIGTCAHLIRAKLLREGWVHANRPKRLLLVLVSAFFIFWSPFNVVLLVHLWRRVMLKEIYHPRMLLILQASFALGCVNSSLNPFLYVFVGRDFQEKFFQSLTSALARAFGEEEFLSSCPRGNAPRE

The target of this assay is Probable G-protein coupled receptor 32 (Homo sapiens) (UniProt O75388). As to the kind of experiment: qHTS for Agonists of Human Resolvin D1 Receptor DRV1. Further: 0% is about no effect. As to conditions: CHO-K1 GPR32 beta-arrestin PathHunter luminescence, 90 min; at 76.9 µM; stronger effect = higher value; zero percent set by DMSO-only wells. The method in brief:
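GPR32 activation in stably transfected CHO-K1 cells, detected as beta-arrestin recruitment by enzyme-fragment complementation. Compound exposure: 90 min, 37 °C.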
With `Cc1cc(NS(=O)(=O)c2ccc(NC(=O)COc3c(C)ccc(C)c3C)cc2)nc(C)n1`, the activation was inactive: 10.7%.

For `Cc1ccc(C2C(=O)N(C3CCC(C)CC3)CC(=O)N2C2CCCC2)cc1` (centres undefined), the activation is inactive: -16%.

For `COc1ccccc1-c1nn2c(=O)cc(CN3CCN(C(=O)Nc4ccc(C)cc4Cl)CC3)nc2s1`, the activation was inactive: 7.78%. On to `COc1cc(C(=O)NCC(c2ccco2)S(=O)(=O)c2cccs2)cc(OC)c1OC` (centres undefined), for which the activation was inactive: 2.52%. In the case of `CCc1cccc(C)c1NC(=O)c1ccc2c(c1)CCN2S(=O)(=O)c1ccc(Cl)cc1`, the activation is inactive: -18%. The figure for `COc1ccc(CNC(=O)COCc2cc(-c3ccc4c(c3)OCO4)on2)cc1` is inactive: 1.18%; for `Cc1ccc(-n2c(=O)c3c(c4cc(C)ccc4n3C)n(CC(=O)Nc3ccc(F)cc3)c2=O)cc1` it is inactive: 17%. On to `CC(=O)c1ccc(N2CCN(C(=O)c3cn(C)c(=O)c4c3c3ccccc3n4C)CC2)cc1`, for which the activation is inactive: -2.44%.

Consider `COCCCNc1nc2c(c(=O)n(Cc3ccc(F)cc3)c(=O)n2C)n1C`, for which the activation was inactive: 5.71%. As for `Cc1cc(C)cc(NC(=O)CCc2c(C)nc3nc(CNC(=O)c4cccc(F)c4)nn3c2C)c1`, the activation is inactive: 0.706%. Consider `CCCCC(=O)Nc1nnc(S(=O)(=O)N(C)Cc2ccc(Cl)cc2)s1`, for which the activation was inactive: 2.86%. In the case of `COc1ccc(N(Cc2cccs2)C(=O)c2ccco2)cc1`, the activation was inactive: -15.4%. Regarding `COc1ccc(N2CCN(S(=O)(=O)c3ccc(CC(C)C)cc3)CC2)cc1`, the activation is inactive: 16.6%. The figure for `O=C(NCC(c1ccco1)S(=O)(=O)c1cccs1)c1ccccc1` (centres undefined) is inactive: -3.63%; for `COc1ccc(OC)c(S(=O)(=O)NCC(c2ccc(N(C)C)cc2)N2CCOCC2)c1` (centres undefined) it is inactive: -8.19%; for `COC(=O)c1cc(NC(=O)c2cc3c(-c4ccccc4F)nn(C)c3s2)cc(C(=O)OC)c1` it is inactive: -7.27%. On to `CCOC(=O)c1cc2c(=O)n3ccccc3nc2n(Cc2ccco2)c1=NC(=O)c1ccccc1Br`, for which the activation is inactive: -18.6%.

Turning to `COC(=O)c1cc2oc3ccccc3c2n1Cc1ccc(C)cc1`, the activation is inactive: -11.5%. Turning to `Cc1c(Cl)cccc1Nc1nn2c(=O)c3ccccc3nc2s1`, the activation was inactive: -18.5%. `Cc1ccccc1-c1noc(-c2ccc(NCC3CCCO3)c([N+](=O)[O-])c2)n1` (centres undefined): the activation is inactive: -20.2%. Consider `COc1ccccc1CNC(=O)CC(c1ccc(F)cc1)N1Cc2ccccc2C1=O` (centres undefined), for which the activation is inactive: -14.2%. Regarding `Cc1cccc(N2CCN(S(=O)(=O)c3ccc(-c4cnc(C5CC5)o4)cc3)CC2)c1C`, the activation was inactive: 2.99%. The figure for `Cc1ccc(Cn2c(SCC(=O)NCc3ccccc3)nc3ccsc3c2=O)cc1` is inactive: -15.6%; for `CCOc1ccc(NC(=O)Cn2c(=O)n(CCCC(=O)NCCc3ccc(Cl)cc3)c(=O)c3ccccc32)cc1` it is inactive: -3.86%; for `COc1ccc(-c2[nH]c(-c3ccc(O)cc3)nc2-c2ccccc2)cc1` it is inactive: -16.3%. The figure for `Cc1ccc([N+](=O)[O-])cc1NC(=O)CN(c1ccccc1)S(=O)(=O)N(C)C` is inactive: -8.66%; for `Cc1oc(-c2ccccc2F)nc1CS(=O)(=O)CC(=O)N1CCN(c2ccccc2)CC1` it is inactive: 25.9%; for `CCOC(=O)c1cccc(NC(=O)C(C)n2nc(C)c3c(C)n(-c4ccccc4)nc3c2=O)c1` (centres undefined) it is inactive: -2.67%. The figure for `CNC(=O)Oc1ccc2c(c1)[C@]1(C)CCN(C)[C@@H]1N2C` is inactive: 4.79% and inactive: 9.5%. Take `CCOC(=O)c1cccc(NC(=O)CCc2nc3cccnc3n2-c2ccccc2)c1`: the activation was inactive: 16.2%. As for `CCOc1ccc(NC(=O)C2(c3cccs3)CCOCC2)cc1`, the activation was inactive: -13.8%.

As for `Cc1cc(C)c2sc(NC(=O)c3ccc(S(=O)(=O)N4CCCC4)cc3)nc2c1`, the activation is inactive: -11.4%. As for `O=C1C(SCCO)=C(SCCO)C(=O)c2ccccc21`, the activation is inactive: -22.1%. Take `COc1ccccc1C(=O)Nc1nc2nc(C)cc(=O)n2[nH]1`: the activation was inactive: 3.08%. The figure for `O=C(CN1C(=O)COc2ccc(S(=O)(=O)NC3CCCC3)cc21)Nc1ccc(Cl)cc1F` is inactive: -16.5%; for `CCOC(=O)c1c(C)oc2ccc(N(C(=O)c3ccncc3)S(=O)(=O)c3ccc(CC)cc3)cc12` it is inactive: -24.1%; for `COc1ccc(OC)c(S(=O)(=O)Nc2ccc3c(c2)n(C)c(=O)n3C)c1` it is inactive: -19.4%.

`CCOC(=O)c1c(C)[nH]c(CCC(=O)Nc2cc(Cl)ccc2OC)c1C`: the activation was inactive: -20.4%.

In the case of `O=C(O)CSCC(=O)NC1CCSC1=O` (centres undefined), the activation was inactive: 1.1%. For `Cc1nc(N2CCOCC2)c2c(C(=O)NCc3ccc(Cl)cc3)c(C)oc2n1`, the activation is inactive: -9.27%. As for `CCc1ccc(NC(=O)c2nc3nc(C)cc(C(F)F)n3n2)cc1`, the activation is inactive: 38.7%.

For the compound `CN(C)S(=O)(=O)N(CC(=O)Nc1ccc(C(F)(F)F)cc1)c1ccccc1`, the activation was inactive: 19.1%.

Regarding `Cc1ccc(OCCSc2nc3ccc(NC(=O)c4cccs4)cc3s2)cc1`, the activation was inactive: 42.7%. Take `Cc1sc(-n2cccc2)c(C(C)NC(=O)Nc2cccc(C(F)(F)F)c2)c1C` (centres undefined): the activation is inactive: 31.3%.

On to `COc1cc(OC)cc(C(=O)NCCc2csc3nc(-c4ccccc4F)nn23)c1`, for which the activation was inactive: -1.41%.

Regarding `COCCOCC(OC)OC`, the activation is inactive: -9.13%. As to `Cc1ccc(S(=O)(=O)N2CC=C(c3c(C)n(CC(=O)N4CCCC4)c4ccccc34)CC2)cc1C`, the activation is inactive: -21.1%. `CCOc1cccc(C(=O)N(Cc2ccc(C)o2)C2CCS(=O)(=O)C2)c1` (centres undefined): the activation was inactive: -14.2%. Regarding `COc1cccc(CNC(=O)c2cc(-c3ccc(Cl)cc3)n[nH]2)c1`, the activation is inactive: 5.39%. With `CCC(CC)c1nn2c(=O)cc(COc3ccc(NC(=O)c4cccc(C)c4)cc3)nc2s1`, the activation was inactive: -5.96%. As for `O=C(CCC(=O)N1CCSc2ccccc21)Nc1ccc(Cl)cc1`, the activation is inactive: -21.8%. Consider `COc1ccccc1CNS(=O)(=O)c1cc(Br)cc2c1N(C(=O)C1CC1)CC2`, for which the activation was inactive: 9.58%. Turning to `COc1ccc(CNc2nc(-c3ccc(Cl)cc3)nn2S(=O)(=O)c2ccc(C)cc2)cc1`, the activation was inactive: 33.5%. The value for `COc1ccc(CNC(=O)c2ccc3c(c2)N(Cc2cc(C)ccc2C)C(=O)CS3)cc1` was inactive: 9.38%.

The record behind these values is PubChem BioAssay AID1346428 (National Center for Advancing Translational Sciences (NCATS), 2018).
